Results as given in a collection of fitness landscapes (doi:10.1016/j.celrep.2020.107928).
Whole data set: some 81,000 sequences, median “one-hybrid fitness for binding parS DNA” near -0.17, cut for the highest 2% near 0.51. Some of the results follow.

B1: Caulobacter ParB omega fusion; a variant is named by its letters at X, in order, B8GW30 (parent)
chain: MESVVVGEPGMSEGRRGLGRGLSALLGEVDAAPAQAPGEQLGGSREAPIEILQRNPDQPRRTFREEDLEDLSNSIREKGVLQPILVRPSPDTAGEYQIVAGERAWRAAQRAGLKTVPIMVRELDDLAVLEIGIIENVQRADLNVLEEALSYKVLMEKFERTQENIAQTIGKSXSHVANXMRLLXLPDEVQSYLVSGELTAXHARAIAAAADPVALAKQIIEGGLSVRETEALARKAPNLSAGKSKGGRPPRVKDTDTQALESDLSSVLGLDVSIDHRGSTGTLTITYATLEQLDDLCNRLTRGI

Variants of: B1
Test: one-hybrid fitness for binding parS DNA (scaled: cognate 1, non-cognate 0); higher = stronger binding
Conditions: with parS DNA site
In short: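 The reporter was HIS3, with the binding site 19 bp from the promoter, in E. coli USO used for bacterial one-hybrid selection of Caulobacter ParB libraries with four specificity codons randomised. Growth was on M9 lacking histidine, with 0.1 mM IPTG and 5 mM 3-AT, for 48 hours at 37°C. Illumina sequencing covered plasmids before and after selection; three replicate libraries were pooled and variants with under 10 reads dropped. A fitness score is the log change in variant-to-wild-type read ratio, rescaled to the cognate and non-cognate references.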

HSHH and YIYE cannot be ordered by “one-hybrid fitness for binding parS DNA” value: no more than 0.2 for the first, no more than 0.2 for the second.

TRDR and WPSM cannot be ordered by “one-hybrid fitness for binding parS DNA” value: no more than 0.2 for the first, no more than 0.2 for the second.

DGSL and TRPF cannot be ordered by “one-hybrid fitness for binding parS DNA” value: no more than 0.2 for the first, no more than 0.2 for the second.

PKKR and YNPG cannot be ordered by “one-hybrid fitness for binding parS DNA” value: no more than 0.2 for the first, no more than 0.2 for the second.

TDPG and VACY cannot be ordered by “one-hybrid fitness for binding parS DNA” value: no more than 0.2 for the first, no more than 0.2 for the second.

First: RGLG
Second: DCAR
The “one-hybrid fitness for binding parS DNA” value of the first is higher: 0.597 for the first, no more than 0.2 for the second.

LCCG and QALR cannot be ordered by “one-hybrid fitness for binding parS DNA” value: no more than 0.2 for the first, no more than 0.2 for the second.

ILDR and PGEM cannot be ordered by “one-hybrid fitness for binding parS DNA” value: no more than 0.2 for the first, no more than 0.2 for the second.

FCAD and SLES cannot be ordered by “one-hybrid fitness for binding parS DNA” value: no more than 0.2 for the first, no more than 0.2 for the second.

QKDK and SGRF cannot be ordered by “one-hybrid fitness for binding parS DNA” value: no more than 0.2 for the first, no more than 0.2 for the second.

DIGV and GIMR cannot be ordered by “one-hybrid fitness for binding parS DNA” value: no more than 0.2 for the first, no more than 0.2 for the second.

YFKG and SSAG cannot be ordered by “one-hybrid fitness for binding parS DNA” value: no more than 0.2 for the first, no more than 0.2 for the second.

HARD and TILN cannot be ordered by “one-hybrid fitness for binding parS DNA” value: no more than 0.2 for the first, no more than 0.2 for the second.

GSNC and HDVS cannot be ordered by “one-hybrid fitness for binding parS DNA” value: no more than 0.2 for the first, no more than 0.2 for the second.

SGTI and RDMS cannot be ordered by “one-hybrid fitness for binding parS DNA” value: no more than 0.2 for the first, no more than 0.2 for the second.

RGNQ and YRAC cannot be ordered by “one-hybrid fitness for binding parS DNA” value: no more than 0.2 for the first, no more than 0.2 for the second.

AEFI and PRGN cannot be ordered by “one-hybrid fitness for binding parS DNA” value: no more than 0.2 for the first, no more than 0.2 for the second.

First: CHLK
Second: RYDM
The “one-hybrid fitness for binding parS DNA” value of the first is lower: no more than 0.2 for the first, 0.29 for the second.

LAYT and QQPV cannot be ordered by “one-hybrid fitness for binding parS DNA” value: no more than 0.2 for the first, no more than 0.2 for the second.

GMNI and LAQP cannot be ordered by “one-hybrid fitness for binding parS DNA” value: no more than 0.2 for the first, no more than 0.2 for the second.

HIGG and DMET cannot be ordered by “one-hybrid fitness for binding parS DNA” value: no more than 0.2 for the first, no more than 0.2 for the second.

QPQW and NTMM cannot be ordered by “one-hybrid fitness for binding parS DNA” value: no more than 0.2 for the first, no more than 0.2 for the second.

First: PLPF
Second: RTNN
The “one-hybrid fitness for binding parS DNA” value of the first is lower: no more than 0.2 for the first, 0.424 for the second.

CKDS and RRYQ cannot be ordered by “one-hybrid fitness for binding parS DNA” value: no more than 0.2 for the first, no more than 0.2 for the second.

VRMW and GNRP cannot be ordered by “one-hybrid fitness for binding parS DNA” value: no more than 0.2 for the first, no more than 0.2 for the second.

NMVV and NRNV cannot be ordered by “one-hybrid fitness for binding parS DNA” value: no more than 0.2 for the first, no more than 0.2 for the second.

SAFN and FTRM cannot be ordered by “one-hybrid fitness for binding parS DNA” value: no more than 0.2 for the first, no more than 0.2 for the second.

PDDR and CHGR cannot be ordered by “one-hybrid fitness for binding parS DNA” value: no more than 0.2 for the first, no more than 0.2 for the second.

AGLW and TQYG cannot be ordered by “one-hybrid fitness for binding parS DNA” value: no more than 0.2 for the first, no more than 0.2 for the second.

GNTT and LRTD cannot be ordered by “one-hybrid fitness for binding parS DNA” value: no more than 0.2 for the first, no more than 0.2 for the second.

ECYV and NGSI cannot be ordered by “one-hybrid fitness for binding parS DNA” value: no more than 0.2 for the first, no more than 0.2 for the second.

RSWV and FTTA cannot be ordered by “one-hybrid fitness for binding parS DNA” value: no more than 0.2 for the first, no more than 0.2 for the second.

YGIR and HTWG cannot be ordered by “one-hybrid fitness for binding parS DNA” value: no more than 0.2 for the first, no more than 0.2 for the second.

YHRR and PVET cannot be ordered by “one-hybrid fitness for binding parS DNA” value: no more than 0.2 for the first, no more than 0.2 for the second.

YPVV and DHDL cannot be ordered by “one-hybrid fitness for binding parS DNA” value: no more than 0.2 for the first, no more than 0.2 for the second.

GKPL and YTMS cannot be ordered by “one-hybrid fitness for binding parS DNA” value: no more than 0.2 for the first, no more than 0.2 for the second.

QAGV and KLTP cannot be ordered by “one-hybrid fitness for binding parS DNA” value: no more than 0.2 for the first, no more than 0.2 for the second.

QHIC and ILLE cannot be ordered by “one-hybrid fitness for binding parS DNA” value: no more than 0.2 for the first, no more than 0.2 for the second.

IATG and RVTL cannot be ordered by “one-hybrid fitness for binding parS DNA” value: no more than 0.2 for the first, no more than 0.2 for the second.

EIMS and EKAC cannot be ordered by “one-hybrid fitness for binding parS DNA” value: no more than 0.2 for the first, no more than 0.2 for the second.

EVPI and QLLC cannot be ordered by “one-hybrid fitness for binding parS DNA” value: no more than 0.2 for the first, no more than 0.2 for the second.

DIPH and FAWC cannot be ordered by “one-hybrid fitness for binding parS DNA” value: no more than 0.2 for the first, no more than 0.2 for the second.

PQLS and GPPC cannot be ordered by “one-hybrid fitness for binding parS DNA” value: no more than 0.2 for the first, no more than 0.2 for the second.

TENK and DHPR cannot be ordered by “one-hybrid fitness for binding parS DNA” value: no more than 0.2 for the first, no more than 0.2 for the second.

ASQS and ACRW cannot be ordered by “one-hybrid fitness for binding parS DNA” value: no more than 0.2 for the first, no more than 0.2 for the second.

TKLR and IRKF cannot be ordered by “one-hybrid fitness for binding parS DNA” value: no more than 0.2 for the first, no more than 0.2 for the second.

HVWG and WSEC cannot be ordered by “one-hybrid fitness for binding parS DNA” value: no more than 0.2 for the first, no more than 0.2 for the second.

LSPC and TRSP cannot be ordered by “one-hybrid fitness for binding parS DNA” value: no more than 0.2 for the first, no more than 0.2 for the second.

First: HGRE
Second: RHDT
The “one-hybrid fitness for binding parS DNA” value of the first is lower: no more than 0.2 for the first, 0.791 for the second.

NWYN and DLCG cannot be ordered by “one-hybrid fitness for binding parS DNA” value: no more than 0.2 for the first, no more than 0.2 for the second.

YLYE and PPEN cannot be ordered by “one-hybrid fitness for binding parS DNA” value: no more than 0.2 for the first, no more than 0.2 for the second.

DKCR and RMHV cannot be ordered by “one-hybrid fitness for binding parS DNA” value: no more than 0.2 for the first, no more than 0.2 for the second.

CMWG and GPHR cannot be ordered by “one-hybrid fitness for binding parS DNA” value: no more than 0.2 for the first, no more than 0.2 for the second.

FRKT and RVTQ cannot be ordered by “one-hybrid fitness for binding parS DNA” value: no more than 0.2 for the first, no more than 0.2 for the second.

VPDS and SEAQ cannot be ordered by “one-hybrid fitness for binding parS DNA” value: no more than 0.2 for the first, no more than 0.2 for the second.

CHHI and GFLL cannot be ordered by “one-hybrid fitness for binding parS DNA” value: no more than 0.2 for the first, no more than 0.2 for the second.

SRQV and IKGL cannot be ordered by “one-hybrid fitness for binding parS DNA” value: no more than 0.2 for the first, no more than 0.2 for the second.

TWKY and YAAG cannot be ordered by “one-hybrid fitness for binding parS DNA” value: no more than 0.2 for the first, no more than 0.2 for the second.

RTMR and RGVL cannot be ordered by “one-hybrid fitness for binding parS DNA” value: no more than 0.2 for the first, no more than 0.2 for the second.

TTLY and TWWR cannot be ordered by “one-hybrid fitness for binding parS DNA” value: no more than 0.2 for the first, no more than 0.2 for the second.

RGQR and HMNA cannot be ordered by “one-hybrid fitness for binding parS DNA” value: no more than 0.2 for the first, no more than 0.2 for the second.

WGAC and KPYG cannot be ordered by “one-hybrid fitness for binding parS DNA” value: no more than 0.2 for the first, no more than 0.2 for the second.

NPAI and FQCG cannot be ordered by “one-hybrid fitness for binding parS DNA” value: no more than 0.2 for the first, no more than 0.2 for the second.

MTVG and YVRY cannot be ordered by “one-hybrid fitness for binding parS DNA” value: no more than 0.2 for the first, no more than 0.2 for the second.

ACQF and AGPA cannot be ordered by “one-hybrid fitness for binding parS DNA” value: no more than 0.2 for the first, no more than 0.2 for the second.

AMSF and TCYT cannot be ordered by “one-hybrid fitness for binding parS DNA” value: no more than 0.2 for the first, no more than 0.2 for the second.

TQWA and SCIR cannot be ordered by “one-hybrid fitness for binding parS DNA” value: no more than 0.2 for the first, no more than 0.2 for the second.

QPKR and LSVS cannot be ordered by “one-hybrid fitness for binding parS DNA” value: no more than 0.2 for the first, no more than 0.2 for the second.

VENK and LRLF cannot be ordered by “one-hybrid fitness for binding parS DNA” value: no more than 0.2 for the first, no more than 0.2 for the second.

SYDR and EMSR cannot be ordered by “one-hybrid fitness for binding parS DNA” value: no more than 0.2 for the first, no more than 0.2 for the second.

VYSG and AGAN cannot be ordered by “one-hybrid fitness for binding parS DNA” value: no more than 0.2 for the first, no more than 0.2 for the second.

Compared with FRDY, WYTA is higher in “one-hybrid fitness for binding parS DNA” value: no more than 0.2 for the first, 0.313 for the second.

NDKW and QMVE cannot be ordered by “one-hybrid fitness for binding parS DNA” value: no more than 0.2 for the first, no more than 0.2 for the second.

Compared with VNRI, RHRN is higher in “one-hybrid fitness for binding parS DNA” value: no more than 0.2 for the first, 0.374 for the second.

DTTG and SSFK cannot be ordered by “one-hybrid fitness for binding parS DNA” value: no more than 0.2 for the first, no more than 0.2 for the second.

THRK and ISHA cannot be ordered by “one-hybrid fitness for binding parS DNA” value: no more than 0.2 for the first, no more than 0.2 for the second.

In the case of TGCW, the “one-hybrid fitness for binding parS DNA” value is reported as no more than 0.2.
